Source: the supplement of paper PMC10928670
MIC of N. gonorrhoeae strains collected 1971-2005, agar dilution (CLSI M07); ranges 0.03-64 mg/L (penicillin, azithromycin), 0.015-1 (cefixime, ceftriaxone), 0.5-256 (spectinomycin); higher = less susceptible. No active / inactive call per row; the paper counts cefixime and ceftriaxone above 0.25 and azithromycin above 1 mg/L as non-susceptible. The source says 'penicillin'; penicillin G is assumed. Isolates are numbered anew.

Tests used:
Test in all cases: Agar dilution by CLSI M07.
azithromycin = compound: CC[C@H]1OC(=O)[C@H](C)[C@@H](O[C@H]2C[C@@](C)(OC)[C@@H](O)[C@H](C)O2)[C@H](C)[C@@H](O[C@@H]2O[C@H](C)C[C@H](N(C)C)[C@H]2O)[C@](C)(O)C[C@@H](C)CN(C)[C@H](C)[C@@H](O)[C@]1(C)O [azithromycin]
penicillin G = compound: CC1(C)S[C@@H]2[C@H](NC(=O)Cc3ccccc3)C(=O)N2[C@H]1C(=O)O [penicillin G]
cefixime = compound: C=CC1=C(C(=O)O)N2C(=O)[C@@H](NC(=O)/C(=N\OCC(=O)O)c3csc(N)n3)[C@H]2SC1 [cefixime]
spectinomycin = compound: CN[C@@H]1[C@H](O)[C@H](NC)[C@H]2O[C@@]3(O)C(=O)C[C@@H](C)O[C@H]3O[C@@H]2[C@H]1O [spectinomycin]
ceftriaxone = compound: CO/N=C(\C(=O)N[C@@H]1C(=O)N2C(C(=O)O)=C(CSc3nc(=O)c(O)nn3C)CS[C@H]12)c1csc(N)n1 [ceftriaxone]

Test System | MIC (azithromycin) [µg/mL] | MIC (penicillin G) [µg/mL] | MIC (cefixime) [µg/mL] | MIC (spectinomycin) [µg/mL] | MIC (ceftriaxone) [µg/mL]
Neisseria gonorrhoeae isolate 140 (GyrA: Wild type, ParC: Wild type, mtrR: -35A Del, G45D, penA: Type XII NonMosaic, A517G, ponA: L421P, porB: G120K, A121D) | 0.25 | 0.5 | ≤ 0.015 | 16 | ≤ 0.015
Neisseria gonorrhoeae isolate 141 (GyrA: Wild type, ParC: Wild type, mtrR: -35A Del, penA: Type XXII NonMosaic, A517G, ponA: L421P, porB: G120D, A121D) | 0.5 | 4 | 0.03 | 16 | 0.03
Neisseria gonorrhoeae isolate 142 (GyrA: S91F, ParC: S88P, mtrR: -35A Del, G45D, penA: Type X Mosaic, N513Y, ponA: L421P, porB: G120K, A121D) | 0.25 | 2 | 0.25 | 64 | 0.125
Neisseria gonorrhoeae isolate 143 (GyrA: S91F, D95N, ParC: S88P, mtrR: -35A Del, G45D, penA: Type X Mosaic, N513Y, ponA: L421P, porB: G120K, A121D) | 0.125 | 4 | 0.5 | 16 | 0.125
Neisseria gonorrhoeae isolate 144 (GyrA: Wild type, ParC: Wild type, mtrR: -35A Del, penA: Type XXII NonMosaic, A517G, ponA: Wild type, porB: G120D) | 1 | 1 | ≤ 0.015 | 8 | ≤ 0.015
Neisseria gonorrhoeae isolate 145 (GyrA: D95G, ParC: Wild type, mtrR: A39T, penA: Type II NonMosaic, A517G, ponA: Wild type, porB: Wild type) | 0.06 | 0.125 | ≤ 0.015 | 32 | ≤ 0.015
Neisseria gonorrhoeae isolate 146 (GyrA: Wild type, ParC: Wild type, mtrR: G45D, penA: Type I NonMosaic, ponA: Wild type, porB: Wild type) | ≤ 0.03 | 0.125 | ≤ 0.015 | 8 | ≤ 0.015
Neisseria gonorrhoeae isolate 147 (GyrA: S91F, D95G, ParC: Wild type, mtrR: G45D, penA: Type IV NonMosaic, A517G, G543S, ponA: L421P, porB: G120K, A121D) | 0.125 | 1 | 0.06 | 16 | 0.03
Neisseria gonorrhoeae isolate 148 (GyrA: Wild type, ParC: Wild type, mtrR: Wild type, penA: Type XIX NonMosaic, A517G, ponA: L421P, porB: G120D, A121D) | 0.125 | 0.5 | ≤ 0.015 | 16 | ≤ 0.015
Neisseria gonorrhoeae isolate 149 (GyrA: S91F, D95G, ParC: Wild type, mtrR: -35A Del, penA: Type V Nonmosaic, A517G, G543S, ponA: L421P, porB: G120K, A121D) | 0.25 | 4 | 0.25 | 16 | 0.125
Neisseria gonorrhoeae isolate 150 (GyrA: Wild type, ParC: Wild type, mtrR: -35A Del, G45D, penA: Type XXII NonMosaic, A517G, ponA: L421P, porB: G120D) | 0.5 | 2 | 0.03 | 16 | 0.03
Neisseria gonorrhoeae isolate 151 (GyrA: S91F, ParC: Wild type, mtrR: G45D, penA: Type IV NonMosaic, A517G, G543S, ponA: L421P, porB: G120K, A121D) | 0.06 | 4 | 0.03 | 32 | 0.06
Neisseria gonorrhoeae isolate 152 (GyrA: Wild type, ParC: Wild type, mtrR: -35A Del, penA: Type XXII NonMosaic, A517G, ponA: L421P, porB: G120K, A121D) | 0.5 | > 64 | 0.03 | 16 | 0.03
Neisseria gonorrhoeae isolate 153 (GyrA: Wild type, ParC: Wild type, mtrR: -35A Del, penA: Type XXII NonMosaic, A517G, ponA: Wild type, porB: G120D) | ≤ 0.03 | 0.06 | ≤ 0.015 | 8 | ≤ 0.015
Neisseria gonorrhoeae isolate 154 (GyrA: Wild type, ParC: Wild type, mtrR: Wild type, penA: Type I NonMosaic, ponA: Wild type, porB: Wild type) | 0.125 | 0.06 | ≤ 0.015 | 32 | ≤ 0.015
Neisseria gonorrhoeae isolate 155 (GyrA: Wild type, ParC: Wild type, mtrR: Wild type, penA: Type I NonMosaic, ponA: Wild type, porB: Wild type) | 0.125 | 0.125 | ≤ 0.015 | 32 | ≤ 0.015
Neisseria gonorrhoeae isolate 156 (GyrA: S91F, D95G, ParC: Wild type, mtrR: -35A Del, penA: Type V Nonmosaic, A517G, G543S, ponA: L421P, porB: G120K, A121D) | 0.25 | 2 | 0.03 | 16 | 0.03
Neisseria gonorrhoeae isolate 157 (GyrA: S91F, D95G, ParC: Wild type, mtrR: -35A Del, penA: Type V Nonmosaic, A517G, G543S, ponA: L421P, porB: G120K, A121N) | 0.25 | 4 | 0.03 | 16 | 0.03
Neisseria gonorrhoeae isolate 158 (GyrA: Wild type, ParC: Wild type, mtrR: -35A Del, A39T, penA: Type IV NonMosaic, A517G, G543S, ponA: L421P, porB: G120K, A121D) | 0.125 | 4 | 0.06 | 16 | 0.125
Neisseria gonorrhoeae isolate 159 (GyrA: Wild type, ParC: Wild type, mtrR: G45D, penA: Type XXII NonMosaic, A517G, ponA: Wild type, porB: Wild type) | 0.06 | 0.25 | ≤ 0.015 | 8 | ≤ 0.015
Neisseria gonorrhoeae isolate 160 (GyrA: Wild type, ParC: Wild type, mtrR: -35A Del, penA: Type XXII NonMosaic, A517G, ponA: L421P, porB: G120D, A121D) | 0.5 | 2 | 0.03 | 64 | 0.03
Neisseria gonorrhoeae isolate 161 (GyrA: Wild type, ParC: Wild type, mtrR: -35A Del, G45D, penA: Type IV NonMosaic, A517G, G543S, ponA: L421P, porB: G120K, A121D) | 0.25 | 8 | 0.125 | 32 | 0.125
Neisseria gonorrhoeae isolate 162 (GyrA: Wild type, ParC: Wild type, mtrR: -35A Del, G45D, penA: Type XXII NonMosaic, A517G, ponA: L421P, porB: G120D, A121D) | ≤ 0.03 | 0.25 | ≤ 0.015 | 32 | ≤ 0.015
Neisseria gonorrhoeae isolate 163 (GyrA: Wild type, ParC: Wild type, mtrR: G45D, penA: Type I NonMosaic, ponA: L421P, porB: G120D, A121D) | 0.06 | 0.25 | ≤ 0.015 | 8 | ≤ 0.015
Neisseria gonorrhoeae isolate 164 (GyrA: S91F, ParC: Wild type, mtrR: G45D, penA: Type VII NonMosaic, A501V, A517G, G543S, ponA: L421P, porB: G120K, A121N) | 0.06 | 2 | 0.125 | 32 | 0.125
